Reference: PubChem BioAssay AID1347165 (National Center for Advancing Translational Sciences (NCATS), 2019)
In all, about 220,000 compounds went through this assay and about 5,700 (2.6%) were called active. The inconclusive results got no clear call from the source; some entries with a clear call stand among them for comparison. Calls come from the whole dose curve; as a rule, active = well fitted inhibition curve with a large enough effect; inconclusive = small, poorly fitted or top-dose-only effect; inactive = no such curve, though single readings can be large or run the other way. Potencies beside an inconclusive call are fits to weak or partial responses and may not hold up.

Molecular target: Lysine-specific demethylase 5B (Homo sapiens) (UniProt Q9UGL1)
Test: Primary screen for KDM5B Histone Demethylases FDH-coupled qHTS; note: nearly all actives have a fitted effect of over 70% in size; for activity change, negative = inhibition: 0% is about no effect
Details: FDH-coupled NADH fluorescence (FDH is formaldehyde dehydrogenase); activity change, negative = inhibition: at 57.7 µM (top of the series) unless noted
Outline: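 Coupled FDH/NAD⁺ fluorescence readout. KDM5BΔAP 200 nM final; compound titration, 10 min RT preincubation; substrate mix 12.5 µM H3K4me3, 25 µM 2-OG, 50 µM Fe(II), 100 µM ascorbate, 0.25 mM NAD⁺, 0.25 U/mL FDH; ΔRFU over 30 min.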
Potency is the fitted concentration of half-maximal effect; tags give direction and shape of the fitted curve.

Chain of UniProt Q9UGL1 (Q9UGL1 whole entry, looked up): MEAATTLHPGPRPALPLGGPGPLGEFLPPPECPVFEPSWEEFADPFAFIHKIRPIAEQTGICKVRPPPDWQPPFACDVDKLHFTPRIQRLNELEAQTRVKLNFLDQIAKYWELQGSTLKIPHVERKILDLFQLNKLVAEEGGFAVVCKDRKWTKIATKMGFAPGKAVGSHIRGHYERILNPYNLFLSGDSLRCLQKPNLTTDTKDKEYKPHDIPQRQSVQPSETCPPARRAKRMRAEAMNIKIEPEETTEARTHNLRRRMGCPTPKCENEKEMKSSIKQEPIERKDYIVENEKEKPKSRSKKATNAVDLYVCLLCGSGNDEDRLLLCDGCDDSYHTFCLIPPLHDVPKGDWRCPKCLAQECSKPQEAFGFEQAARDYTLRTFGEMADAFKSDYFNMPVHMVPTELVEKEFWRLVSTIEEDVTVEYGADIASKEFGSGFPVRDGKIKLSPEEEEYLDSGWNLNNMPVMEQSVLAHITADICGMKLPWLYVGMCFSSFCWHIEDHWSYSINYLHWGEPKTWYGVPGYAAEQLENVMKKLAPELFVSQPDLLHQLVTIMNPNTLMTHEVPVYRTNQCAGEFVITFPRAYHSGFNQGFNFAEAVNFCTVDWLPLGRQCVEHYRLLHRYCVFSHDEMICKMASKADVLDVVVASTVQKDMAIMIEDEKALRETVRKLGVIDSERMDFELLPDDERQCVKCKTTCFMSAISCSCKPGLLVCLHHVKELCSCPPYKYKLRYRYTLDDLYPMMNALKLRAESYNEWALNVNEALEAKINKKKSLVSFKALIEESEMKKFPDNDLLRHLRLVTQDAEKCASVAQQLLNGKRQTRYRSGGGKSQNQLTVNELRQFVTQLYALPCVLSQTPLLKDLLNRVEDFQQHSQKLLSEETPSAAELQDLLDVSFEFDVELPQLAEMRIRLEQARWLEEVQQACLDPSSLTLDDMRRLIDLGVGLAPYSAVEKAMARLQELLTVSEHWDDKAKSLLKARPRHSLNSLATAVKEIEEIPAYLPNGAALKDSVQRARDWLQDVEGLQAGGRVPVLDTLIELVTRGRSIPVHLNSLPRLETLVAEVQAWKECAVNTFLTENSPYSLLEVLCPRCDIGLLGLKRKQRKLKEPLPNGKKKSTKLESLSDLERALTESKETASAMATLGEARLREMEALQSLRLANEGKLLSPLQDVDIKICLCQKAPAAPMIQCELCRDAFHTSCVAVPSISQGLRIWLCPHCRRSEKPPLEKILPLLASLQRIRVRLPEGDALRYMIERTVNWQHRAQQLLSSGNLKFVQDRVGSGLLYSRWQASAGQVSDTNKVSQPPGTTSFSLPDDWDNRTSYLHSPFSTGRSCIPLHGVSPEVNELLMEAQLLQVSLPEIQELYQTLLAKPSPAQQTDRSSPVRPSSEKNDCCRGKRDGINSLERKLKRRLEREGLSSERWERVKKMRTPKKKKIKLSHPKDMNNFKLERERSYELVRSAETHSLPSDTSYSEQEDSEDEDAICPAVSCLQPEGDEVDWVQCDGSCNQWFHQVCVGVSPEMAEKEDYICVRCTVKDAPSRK

| SMILES | activity change, negative = inhibition | Potency |
| --- | --- | --- |
| COC(=O)COc1ccc2c(=O)c(-c3ccccc3)c(C(F)(F)F)oc2c1 | inactive: -4.3% | – |
| COc1ccc(-c2cnc3[nH]cc(CC(=O)NCCc4ccccn4)c3c2)cc1 | – | active: 35.5 µM |
| CC(NC(=O)C1CCN(C(=O)c2cccc3ccccc23)CC1)c1ccc(F)cc1F (stereo not given) | inactive: 8.71% | – |
| Cc1cccc(-c2nc3cnccn3c2NCCC(=O)NCc2ccc(F)c(Cl)c2)c1 | – | active: 28.2 µM |
| Cc1ccc(C(=O)C(CC(=O)c2ccc(C)c(C)c2)S(=O)(=O)c2ccc(C)cc2)cc1 (stereo not given) | – | inconclusive: 17.8 µM [inhibitor, single point] |
| Cc1cccc(OCC2(CNCc3ccccn3)C[C@@H](O)[C@@H](O)C2)n1 (stereo not given in full) | – | inconclusive: 35.5 µM [inhibitor, single point] |
| CC1=C(c2ccc(C)c(C)c2)S(=O)(=O)N(Cc2ccc(C(=O)NCc3ccccc3F)cc2)C1=O | – | inconclusive: 35.5 µM [inhibitor, partial curve, poor fit] |
| N#C/C(=C\c1ccc(O)cc1)C(=O)NCC1CCCO1 (stereo not given) | – | inconclusive: 31.6 µM [inhibitor, single point] |
| O=C(/C(Cl)=C/N1CCN(C(c2ccccc2)c2ccccc2)CC1)C(F)(F)F | inactive: 6.79% | – |
| CCN1CC(c2ccccc2)CC2(CCN(S(=O)(=O)N(C)C)CC2)C1 (stereo not given) | inactive: 39.7% | – |
| COc1ccc2nc([C@H]3CCN(Cc4ccncc4)C3)[nH]c2c1 | – | active: 35.5 µM |
| O=c1cc(CCl)c2ccc3ccccc3c2o1 | – | inconclusive: 15.8 µM [inhibitor, partial curve, poor fit] |
| Cc1nc2ccc(NS(=O)(=O)c3cccs3)cc2s1 | inactive: -0.556% | – |
| Cc1noc(-c2ccc3c(c2)OCO3)c1C(=O)NCCCc1ccccc1 | – | active: 25.1 µM |
| O=c1cc(-c2ccncc2)oc2c(-c3cccc4[nH]ccc34)nccc12 | inactive: -29.8% [at 86.2 µM] | – |
| Cc1nc(SCC(=O)Nc2ccccc2)oc1C | inactive: 12.6% | – |
| CCn1nc(C)c2c(-c3ccccc3)cc(=O)n(C(C)C(=O)Nc3ccc(OC)c(OC)c3)c21 (stereo not given) | – | inconclusive: 15.8 µM [inhibitor, partial curve, poor fit] |
| COc1ccc(C2C=C(c3ccccc3)Nc3nc(NC(C)=O)nn32)cc1 (stereo not given) | – | inconclusive: 14.1 µM [inhibitor, partial curve, poor fit] |
| CCOC(=O)c1ccccc1NC(=O)CN(c1ccccc1)S(=O)(=O)c1ccc(OCC)cc1 | – | inconclusive: 5.62 µM [inhibitor, partial curve, poor fit] |
| Cc1ccc(N=Cc2cccc([N+](=O)[O-])c2)c(C)c1 | – | inconclusive: 25.1 µM [inhibitor, partial curve, poor fit] |
| Cc1cccc(NC(=O)Nc2cccs2)c1C | – | inconclusive: 31.6 µM [inhibitor, single point] |
| N#Cc1cccc(C(=O)N[C@H]2[C@H](O)[C@H](O)C[C@@H]2c2ccc(N3CCOCC3)nc2)c1 | – | inconclusive: 35.5 µM [inhibitor, single point] |
| N#CC1(NC(=O)COC(=O)c2nn(Cc3ccccc3)c(=O)c3ccccc23)CCCCC1 | inactive: -10% | – |

| SMILES | activity change, negative = inhibition | Potency |
| --- | --- | --- |
| COc1cccc(CN2CCCN(S(=O)(=O)c3ccccc3)CCC(=O)NCC2)n1 | – | inconclusive: 35.5 µM [inhibitor, partial curve, poor fit] |
| CCn1cc(C(=O)OCC(=O)Nc2cc(Cl)ccc2C)c(=O)c2ccc(C)nc21 | inconclusive: -30.4% [inhibitor] | – |
| O=C(Cn1nc2c(cc1=O)CCCC2)N1CCN(c2ccc(C(F)(F)F)cn2)CC1 | – | inconclusive: 22.4 µM [inhibitor, partial curve] |
| CC1CCN(S(=O)(=O)c2ccc3nc(NCc4ccc(N(C)C)cc4)ccc3c2)CC1 | – | inconclusive: 28.2 µM [inhibitor, partial curve, poor fit] |
| CCn1cc(-c2cc(C(=O)OC)c3ccccc3n2)c(C)n1 | – | inconclusive: 25.1 µM [inhibitor, partial curve, poor fit] |
| Cc1nn(CN2CCN(S(=O)(=O)c3ccc(C(C)C)cc3)CC2)c(=O)c2ccccc12 | inactive: 18.1% | – |
| c1ccc2c(c1)ccc1n[nH]nc12 | inactive: 13.4% | – |
| CC1(C)CC(N2CCCCC2)=CC(=NCCCN2CCOCC2)C1 | inactive: -17% | – |
| Cc1cc2nc(/C(C#N)=C\c3ccc(O)c(I)c3)[nH]c2cc1C | inactive: 18.6% | – |
| O=C(O)CCC(CC(=O)O)C(=O)O (stereo not given) | inactive: 22.3% | – |
| CN(C)Cc1nnc(C2CC(NC(=O)c3ccc4c(c3)CCC4)C2)n1C (stereo not given) | inactive: -10.3% | – |
| CN1CC2(CCN(C(=O)Cn3c(=O)oc4ccccc43)CC2)CC1C(=O)N1CCOCC1 (stereo not given) | – | inconclusive: 35.5 µM [inhibitor, partial curve, poor fit] |
| CCn1c2ccccc2c2cc(CN3CCN(Cc4ccc(OC)c(OC)c4)CC3)ccc21 | – | inconclusive: 2.82 µM [inhibitor, full curve, poor fit] |
| Cc1cc(C)n(CCC(=O)NCC2CCN(c3cc(-c4ccccc4)[nH]n3)CC2)n1 | – | inconclusive: 35.5 µM [inhibitor, single point] |
| CCCn1c(/C=C/c2ccccc2)nc2ccccc21 | – | inconclusive: 25.1 µM [inhibitor, partial curve, poor fit] |
| COc1ccc(NC(=O)c2c(N)c(C(=O)c3ccc(OC)cc3)n3ccccc23)cc1 | – | inconclusive: 15.8 µM [inhibitor, partial curve, poor fit] |
| O=C(CC1C=CCC1)NCc1ccco1 (stereo not given) | – | inconclusive: 28.2 µM [inhibitor, partial curve, poor fit] |
| c1ccc(CN2CCC[C@H]2c2nc(-c3ccc(-n4ccnc4)nc3)no2)cc1 | inactive: -20.2% [at 86.2 µM] | – |
| CN1CC(=O)N(c2ccccc2F)Cc2c(NCCCc3ccccc3)ncnc21 | inactive: -18.8% | – |
| CCc1cc(=O)oc2c(CNCc3ccccc3F)c(O)c(Cl)cc12 | – | inconclusive: 2 µM [inhibitor, full curve, poor fit] |
| CN1CCC(C(=O)N2Cc3ccccc3CC3(CCN(Cc4cccnc4)C3)C2)CC1 (stereo not given) | – | inconclusive: 50.1 µM [inhibitor, partial curve] |
| CC(C)(CC(=O)O)CC(=O)Nc1cccc2ccccc12 | inactive: -8.92% | – |
